Measurements: patent US5654451A, “Amino acids and peptides having modified C-terminals and modified N-terminals” (Magainin Pharmaceuticals Inc., priority 1995, dated 1997)
≈ marks a conversion by molar mass, not a printed value. Not every detail of the peptide structures is certain; ends, links or a residue may be inferred. For at least one compound, name, drawing or mass did not settle the structure. Starred links: 1 amine or outer side, 2 acyl side, 3 side chain; linkers in the order of their positions; H or OH if unused. Positions of bridges follow the written chain, without caps; N, C: chain ends. Residues, ends and D or L forms follow the SMILES beside them. Chains are numbered I, II in the order given. *: point of attachment. NH(CH2)12NH = C(CCCCCCN[*:2])CCCCCN[*:1]; Acm = CC(=O)NC*

What was measured:
Experiment in all cases: Antimicrobial assay (MIC, microtiter broth dilution)
Format in all cases: cell-based
[1] = system: C. albicans; conditions: for MIC Candida: Table VI
Method: (§1) The procedure for the antimicrobial assay is based upon the guidelines of the National Committee for Clinical Laboratory Standards, Document M7-T2, Volume 8, No. 8, 1988.
(§2) 1-5×10^5 CFUs/ml of either S. aureus ATCC 25923, E. coli ATCC 25922, P. aeruginosa ATCC 27853, or C. albicans were added to the wells in full strength Mueller Hinton broth (BBL 11443) from a mid-log culture. The inoculum is standardized spectrophotometrically at 600 nm and is verified by colony counts. The plates are incubated for 16-20 hours at 37° C., and the minimal inhibitory concentrations (MIC) for the compounds are determined. Minimal inhibitory concentration is defined as the lowest concentration of amino acid or peptide which produces a clear well in the microtiter plate.

[2] = system: P. aeruginosa; conditions: for MIC Psuedo: Table VI
Method: as §1, §2

[3] = system: S. aureus; conditions: for MIC Staph: Table VI
Method: as §1, §2

[4] = system: E. coli
Method: as §1, §2

SMILES | MIC Candida [1] | MIC Psuedo [2] | MIC Staph [3] | MIC E. coli ([4]; Table VI) | further results
C[C@H](N)C(=O)N[C@@H](CCCNC(=N)N)C(=O)N[C@@H](Cc1ccccc1)C(=O)NCCCCCCCCCCCCNC(=O)[C@H](Cc1ccccc1)NC(=O)[C@H](CCCNC(=N)N)NC(=O)[C@H](C)N [Compound 43, 1,12-[Di-(AlaArgPhe)] diaminododecane] | 128 µg/mL (≈ 135 µM) | 256 µg/mL (≈ 270 µM) | 16 µg/mL (≈ 16.9 µM) | 128 µg/mL (≈ 135 µM) | –
CCCCCCCCCCCCOC(=O)[C@H](Cc1ccccc1)NC(=O)[C@H](CCCNC(=N)N)NC(=N)N [Compound 91, N^α -Amidino-ArgPhe-dodecylester] | 32 µg/mL (≈ 60.2 µM) | 16 µg/mL (≈ 30.1 µM) | 4 µg/mL (≈ 7.52 µM) | 4 µg/mL (≈ 7.52 µM) | –
N=C(N)NCCC[C@H](N)C(=O)N[C@@H](CC1CCCCC1)C(=O)NCCCCCCCCCCCCNC(=O)[C@H](CC1CCCCC1)NC(=O)[C@@H](N)CCCNC(=N)N [Compound 57, 1,12-[Di-(ArgCha)] diaminododecane] | 32 µg/mL (≈ 39.1 µM) | 8 µg/mL (≈ 9.77 µM) | 2 µg/mL (≈ 2.44 µM) | 4 µg/mL (≈ 4.88 µM) | –
CCCCCCCCN(CCCCCCCC)C(=O)[C@H](Cc1ccccc1)NC(=O)[C@@H](N)CCCNC(=N)N [Compound 35, arginyl-phenylalanyl dioctylamide] | – | – | – | – | MIC C. albicans ([1]; Table I): 16 µg/mL (≈ 29.4 µM); MIC P aeruginosa ([2]; Table I, P. aeruginosa ATCC 27853): 16 µg/mL (≈ 29.4 µM); MIC S. aureus ([3]; Table I, S. aureus ATCC 25923): 4,8 μg/ml; MIC E. coli ([4]; Table I, E. coli ATCC 25922): 4 µg/mL (≈ 7.34 µM)
N=C(N)NCCC[C@H](N)C(=O)N[C@@H](Cc1ccccc1)C(=O)Nc1ccc(C=Cc2ccc(NC(=O)[C@H](Cc3ccccc3)NC(=O)[C@@H](N)CCCNC(=N)N)cc2)cc1 (single isomer, unassigned) [Compound 48, 4,4'-[Di-ArgPhe)] diaminostilbene] | 16 to 32 µg/mL | 32 to 64 µg/mL | 1 to 2 µg/mL | 32 to 64 µg/mL | –
CC[C@H](C)[C@H](NC(=O)[C@@H](N)CCCNC(=N)N)C(=O)NCCCCCCCCCCCCNC(=O)[C@@H](NC(=O)[C@@H](N)CCCNC(=N)N)[C@@H](C)CC [Compound 54, 1,12-[Di-(ArgIle)] diaminododecane] | 32 µg/mL (≈ 43.3 µM) | – | 32 µg/mL (≈ 43.3 µM) | – | –
C[C@H](NC(=O)OC(C)(C)C)C(=O)N[C@@H](CCCNC(=N)N)C(=O)N[C@@H](Cc1ccccc1)C(=O)NCCCCCCCCCCCCNC(=O)[C@H](Cc1ccccc1)NC(=O)[C@H](CCCNC(=N)N)NC(=O)[C@H](C)NC(=O)OC(C)(C)C [Compound 41, 1,12-[Di-(BocAlaArgPhe)] diaminododecane] | 64 µg/mL (≈ 55.7 µM) | > 256 µg/mL | 2 µg/mL (≈ 1.74 µM) | 32 µg/mL (≈ 27.8 µM) | –
N=C(N)NCCC[C@H](NC(=O)[C@@H](N)Cc1ccccc1)C(=O)NCCCCCCCCCCCCNC(=O)[C@H](CCCNC(=N)N)NC(=O)[C@@H](N)Cc1ccccc1 [Compound 46, 1,12-[Di-(PheArg)] diaminododecane] | 32 µg/mL (≈ 39.6 µM) | 128 µg/mL (≈ 159 µM) | 8 µg/mL (≈ 9.91 µM) | 128 µg/mL (≈ 159 µM) | –
CCCCCCCCN(CCCCCCCC)C(=O)[C@H](Cc1ccccc1)NC(=O)[C@H](CCCNC(=N)N)NC(=N)N [Compound 64, N^α -Amidino-ArgPhedioctylamide] | 16 µg/mL (≈ 27.3 µM) | 16 µg/mL (≈ 27.3 µM) | 2 µg/mL (≈ 3.41 µM) | 4 µg/mL (≈ 6.82 µM) | –
CC(=O)NCSC[C@H](NC(=O)[C@H](Cc1ccccc1)NC(=O)[C@H](CCCNC(=N)N)NC(=O)[C@@H](N)CCCNC(=N)N)C(=O)NCCCCCCCCCCCCNC(=O)[C@H](CSCNC(C)=O)NC(=O)[C@H](Cc1ccccc1)NC(=O)[C@H](CCCNC(=N)N)NC(=O)[C@@H](N)CCCNC(=N)N [Compound 52, HArgArgPheCys(Acm)CONH(CH2)12 NHCOCys(Acm)Phe ArgArg.H] (I: H-RRFC(Acm) / II: H-RRFC(Acm); linker I:C-II:C via NH(CH2)12NH) | 64 µg/mL (≈ 43.6 µM) | 64 µg/mL (≈ 43.6 µM) | 8 µg/mL (≈ 5.45 µM) | 16 µg/mL (≈ 10.9 µM) | –
CC(=O)NCSC[C@H](NC(=O)[C@H](Cc1ccccc1)NC(=O)[C@@H](N)CCCNC(=N)N)C(=O)NCCCCCCCCCCCCNC(=O)[C@H](CSCNC(C)=O)NC(=O)[C@H](Cc1ccccc1)NC(=O)[C@@H](N)CCCNC(=N)N [Compound 51, HArgPheCys(Acm)CONH(CH2)12 NHCOCys(Acm)PheArgH] | 64 µg/mL (≈ 55.4 µM) | 64 µg/mL (≈ 55.4 µM) | 32 µg/mL (≈ 27.7 µM) | 64 µg/mL (≈ 55.4 µM) | –
N=C(N)NCCC[C@H](N)C(=O)N[C@@H](Cc1ccccc1)C(=O)Nc1ccc(C=Cc2ccc(NC(=O)[C@H](Cc3ccccc3)NC(=O)[C@@H](N)CCCNC(=N)N)cc2)cc1 (single isomer, unassigned) [Compound 25, 4,4'-[di-(arginyl-phenylalanyl)]diaminostilbene] | – | – | – | – | MIC C. albicans 14053 ([1]; strain 14053): 16,32 μg/ml; MIC P. aeruginosa 27853 ([2]; strain 27853 (Tables II-V)): 32,64 μg/ml; MIC S. aureus 29213 ([3]; strain 29213 (Tables II-V)): 1,2 μg/ml; MIC E. coli 25922 ([4]; strain 25922 (Tables II-V)): 32,64 μg/ml
N=C(N)NCCC[C@H](NC(=O)CCCN)C(=O)N[C@@H](Cc1ccccc1)C(=O)NCCCCCCCCCCCCNC(=O)[C@H](Cc1ccccc1)NC(=O)[C@H](CCCNC(=N)N)NC(=O)CCCN [Compound 42, 1,12-[Di-(γ-Aminobutyryl-ArgPhe)] diaminododecane] | 64 µg/mL (≈ 65.5 µM) | 64 µg/mL (≈ 65.5 µM) | 4 µg/mL (≈ 4.09 µM) | 32 µg/mL (≈ 32.7 µM) | –
